Holding throughout (experiment): co-IP; TAP-tagged tof1 truncation proteins captured on IgG Sepharose from yeast lysates first treated with 100 U benzonase for 40 min at 4°C and cleared; 2 h, 4°C; lysis buffer 50 mM HEPES pH 7.5, 300 mM KCl; beads boiled in sample buffer; western blot for myc tagged Top1
A general note: Immunoblotting shows a protein as a band on a membrane.

Assay [1] has as its target T1, tof1 1182 truncation protein, C terminally TAP tagged (S. cerevisiae) (UniProt P53840).
T1 sequence: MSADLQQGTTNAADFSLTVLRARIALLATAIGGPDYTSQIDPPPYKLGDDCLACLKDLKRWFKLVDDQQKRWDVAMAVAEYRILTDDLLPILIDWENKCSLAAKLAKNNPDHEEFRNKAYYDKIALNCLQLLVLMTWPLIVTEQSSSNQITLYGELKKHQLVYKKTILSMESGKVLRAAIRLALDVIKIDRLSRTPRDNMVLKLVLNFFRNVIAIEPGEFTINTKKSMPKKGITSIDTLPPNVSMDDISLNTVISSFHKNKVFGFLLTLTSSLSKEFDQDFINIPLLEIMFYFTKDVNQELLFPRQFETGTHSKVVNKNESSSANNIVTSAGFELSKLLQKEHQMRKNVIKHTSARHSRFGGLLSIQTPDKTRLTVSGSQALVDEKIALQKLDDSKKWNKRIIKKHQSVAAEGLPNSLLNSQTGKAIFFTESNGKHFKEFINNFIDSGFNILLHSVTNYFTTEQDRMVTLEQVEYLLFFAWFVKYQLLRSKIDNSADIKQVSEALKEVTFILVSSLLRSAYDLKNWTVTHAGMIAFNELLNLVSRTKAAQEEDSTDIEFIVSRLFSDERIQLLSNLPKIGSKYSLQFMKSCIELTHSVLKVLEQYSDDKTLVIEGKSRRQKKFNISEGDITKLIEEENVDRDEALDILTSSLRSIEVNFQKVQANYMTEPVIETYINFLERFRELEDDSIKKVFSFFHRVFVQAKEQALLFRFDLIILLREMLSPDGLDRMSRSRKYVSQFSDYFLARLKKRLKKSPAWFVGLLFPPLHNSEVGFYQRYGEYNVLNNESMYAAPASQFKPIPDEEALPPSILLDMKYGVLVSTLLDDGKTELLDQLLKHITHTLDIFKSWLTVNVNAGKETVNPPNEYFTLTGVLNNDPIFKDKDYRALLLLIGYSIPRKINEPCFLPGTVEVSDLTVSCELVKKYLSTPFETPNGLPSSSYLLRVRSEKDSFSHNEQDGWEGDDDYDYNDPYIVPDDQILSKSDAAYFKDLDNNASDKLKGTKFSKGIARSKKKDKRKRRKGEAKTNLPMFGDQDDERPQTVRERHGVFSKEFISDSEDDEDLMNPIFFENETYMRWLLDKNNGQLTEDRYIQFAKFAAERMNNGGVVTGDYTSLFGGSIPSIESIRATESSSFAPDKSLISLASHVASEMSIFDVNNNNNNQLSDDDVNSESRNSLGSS

Assay [2] addresses T2, tof1 997 truncation protein, C terminally TAP tagged (S. cerevisiae) (UniProt P53840).
T2 sequence: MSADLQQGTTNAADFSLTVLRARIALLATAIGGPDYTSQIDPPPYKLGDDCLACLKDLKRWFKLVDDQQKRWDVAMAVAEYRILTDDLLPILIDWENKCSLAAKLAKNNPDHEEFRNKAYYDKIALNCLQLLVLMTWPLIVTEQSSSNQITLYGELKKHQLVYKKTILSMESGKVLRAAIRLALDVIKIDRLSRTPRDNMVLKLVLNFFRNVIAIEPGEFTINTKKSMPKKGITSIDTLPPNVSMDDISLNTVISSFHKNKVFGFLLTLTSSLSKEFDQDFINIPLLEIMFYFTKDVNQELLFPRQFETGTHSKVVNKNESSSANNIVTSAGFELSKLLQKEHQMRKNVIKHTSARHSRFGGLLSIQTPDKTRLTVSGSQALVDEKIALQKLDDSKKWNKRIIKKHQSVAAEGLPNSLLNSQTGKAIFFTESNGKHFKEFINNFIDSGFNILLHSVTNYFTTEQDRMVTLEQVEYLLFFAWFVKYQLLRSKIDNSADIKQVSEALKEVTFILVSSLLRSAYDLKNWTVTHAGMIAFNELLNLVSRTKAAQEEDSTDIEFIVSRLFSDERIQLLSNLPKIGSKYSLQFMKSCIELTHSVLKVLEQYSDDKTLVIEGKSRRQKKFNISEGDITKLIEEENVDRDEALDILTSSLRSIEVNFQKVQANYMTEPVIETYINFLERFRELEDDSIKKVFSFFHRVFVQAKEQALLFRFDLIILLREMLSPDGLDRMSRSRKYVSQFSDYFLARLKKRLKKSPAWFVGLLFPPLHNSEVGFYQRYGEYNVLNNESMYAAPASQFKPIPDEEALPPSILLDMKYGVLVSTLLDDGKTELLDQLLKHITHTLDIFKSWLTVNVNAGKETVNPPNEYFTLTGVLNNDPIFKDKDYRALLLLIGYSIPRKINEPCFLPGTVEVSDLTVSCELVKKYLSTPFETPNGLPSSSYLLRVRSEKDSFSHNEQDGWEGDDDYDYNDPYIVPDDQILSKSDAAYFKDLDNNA

Assay [3] concerns the target T3, tof1 627 truncation protein, C terminally TAP tagged (S. cerevisiae) (UniProt P53840).
T3 sequence: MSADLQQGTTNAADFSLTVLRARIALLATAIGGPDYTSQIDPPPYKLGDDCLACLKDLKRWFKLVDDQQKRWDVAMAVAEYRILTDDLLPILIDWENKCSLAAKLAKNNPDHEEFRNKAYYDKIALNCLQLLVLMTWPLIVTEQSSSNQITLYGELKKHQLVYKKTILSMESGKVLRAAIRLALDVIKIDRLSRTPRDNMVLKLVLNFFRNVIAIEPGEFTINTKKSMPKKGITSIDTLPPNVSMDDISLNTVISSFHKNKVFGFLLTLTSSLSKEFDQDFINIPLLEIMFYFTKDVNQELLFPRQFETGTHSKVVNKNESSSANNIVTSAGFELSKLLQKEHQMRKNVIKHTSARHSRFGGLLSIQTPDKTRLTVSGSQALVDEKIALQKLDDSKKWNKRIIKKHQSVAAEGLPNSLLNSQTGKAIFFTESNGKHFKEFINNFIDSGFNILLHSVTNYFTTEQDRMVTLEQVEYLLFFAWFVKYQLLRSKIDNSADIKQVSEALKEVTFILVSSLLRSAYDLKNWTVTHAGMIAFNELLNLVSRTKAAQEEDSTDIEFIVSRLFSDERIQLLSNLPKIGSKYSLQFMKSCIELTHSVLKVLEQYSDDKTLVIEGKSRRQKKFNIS

Results are given in words; binding and its absence hold for the method and conditions named. In cells and extracts the contact can be indirect. Some binding calls cover weakened binding; strength is not graded here. Tags and fused reporters may be left off the sequences shown.

B1: myc tagged Top1 protein (enzyme, UniProt P04786 1-769)
chain: MTIADASKVNHELSSDDDDDVPLSQTLKKRKVASMNSASLQDEAEPYDSDEAISKISKKKTKKIKTEPVQSSSLPSPPAKKSATSKPKKIKKEDGDVKVKTTKKEEQENEKKKREEEEEEDKKAKEEEEEYKWWEKENEDDTIKWVTLKHNGVIFPPPYQPLPSHIKLYYDGKPVDLPPQAEEVAGFFAALLESDHAKNPVFQKNFFNDFLQVLKESGGPLNGIEIKEFSRCDFTKMFDYFQLQKEQKKQLTSQEKKQIRLEREKFEEDYKFCELDGRREQVGNFKVEPPDLFRGRGAHPKTGKLKRRVNPEDIVLNLSKDAPVPPAPEGHKWGEIRHDNTVQWLAMWRENIFNSFKYVRLAANSSLKGQSDYKKFEKARQLKSYIDAIRRDYTRNLKSKVMLERQKAVAIYLIDVFALRAGGEKSEDEADTVGCCSLRYEHVTLKPPNTVIFDFLGKDSIRFYQEVEVDKQVFKNLTIFKRPPKQPGHQLFDRLDPSILNKYLQNYMPGLTAKVFRTYNASKTMQDQLDLIPNKGSVAEKILKYNAANRTVAILCNHQRTVTKGHAQTVEKANNRIQELEWQKIRCKRAILQLDKDLLKKEPKYFEEIDDLTKEDEATIHKRIIDREIEKYQRKFVRENDKRKFEKEELLPESQLKEWLEKVDEKKQEFEKELKTGEVELKSSWNSVEKIKAQVEKLEQRIQTSSIQLKDKEENSQVSLGTSKINYIDPRLSVVFCKKYDVPIEKIFTKTLREKFKWAIESVDENWRF
As to B1, the binding result is reported as “binds” in assay [1], “no binding” in assay [2] and “no binding” in assay [3].

These data come from PMC7708041.
